Source: PubChem BioAssay AID2101 (National Center for Advancing Translational Sciences (NCATS), 2009)
The campaign covered roughly 330,000 compounds. About 300 (0.091%) were called active. The inconclusive results got no clear call from the source; some entries with a clear call stand among them for comparison. The call rests on the fitted dose curve; in most records, active means well fitted inhibition curve with a large enough effect; inconclusive means small, poorly fitted or top-dose-only effect, or effect the other way, or another doubt; inactive means no such curve, though single readings can be large or run the other way. No potency is given beside an inconclusive call; the fits are too rough.

Target: Lysosomal acid glucosylceramidase (Homo sapiens) (UniProt P04062)
Test: qHTS Assay for Inhibitors and Activators of N370S glucocerebrosidase as a Potential Chaperone Treatment of Gaucher Disease;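 on activity change, negative = inhibition: 0% = full enzyme activity and -100% = no enzyme basal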
Details: N370S GC spleen homogenate, 4MU-glucoside fluorescence; activity change, negative = inhibition: at 59.4 µM (top of the series) unless noted
Potency means the concentration at half of the fitted maximal effect.

Row | SMILES | Potency | activity change, negative = inhibition
1 | CC(C)c1onc(C(=O)Nc2ccc3c(c2)OCO3)c1[N+](=O)[O-] | inconclusive [inhibitor, partial curve] | 
2 | CC(C)/C=C1\CCc2c([nH]c3ccccc23)C1=O | inconclusive [activator, partial curve] | 
3 | O=C(COc1ccc(F)cc1Br)Nc1ccccc1N1CCOCC1 | inconclusive [activator, single point] | 
4 | C[C@@H]1CC=C[C@H]2[C@H]1C(=O)N(Cc1ccccc1)[C@H]2c1ccc2ccccc2c1Br | inactive | 
5 | CCCn1c(NC(=O)c2ccccc2)nc2ccccc21 | inconclusive [activator, single point] | 
6 | COc1cccc(/C=N/Nc2nc3ccccc3n3cnnc23)c1 | inactive | 
7 | CCOc1ccc(CCN2C(=O)C(=O)N([C@H](CCCN(C)Cc3ccccc3)CNCc3ccccc3)C[C@@H]2C(C)C)cc1 | inactive | 
8 | CC(=O)C(C)Oc1cc(C)cc2oc(=O)c(C)c(C)c12 (stereo not given) | inactive | 
9 | CCOCCCNC(=O)c1c[nH]c2ccc(S(=O)(=O)Nc3cccc(OC)c3)cc2c1=O |  | inconclusive: 35.1% [activator]
10 | COc1cc(S(=O)(=O)N2CCOCC2)ccc1NC(=O)COC(=O)CC12CC3CC(CC(C3)C1)C2 | inconclusive [activator, partial curve, poor fit] | 
11 | CCc1ccc(S(=O)(=O)NCc2csc(-c3ccccc3)n2)s1 | inconclusive [activator, partial curve] | 
12 | COc1ccc(OCC(=O)NC(=S)N2CCCc3ccccc32)cc1 | inconclusive [inhibitor, partial curve] | 
13 | O=C(CNS(=O)(=O)c1ccc([N+](=O)[O-])cc1)N/N=C/c1ccc(O)cc1O | inactive | 
14 | CC(C)C(=O)Nc1ccc(S(=O)(=O)Nc2nccc(/C=C/c3ccccc3)n2)cc1 | inconclusive [activator, single point] | 
15 | COc1ccc(S(=O)(=O)c2c(C)c(NS(=O)(=O)c3ccccc3)cc(C)c2O)cc1 | inactive | 
16 | COCCCNCCOCCOc1ccc(Cl)cc1C(C)(C)C | inconclusive [inhibitor, single point] | 
17 | CCOC(=O)c1ccccc1NC(=O)c1ccc2c(=O)n3c(nc2c1)CCCCC3 | inconclusive [activator, partial curve] | 
18 | CN(C)C(=O)Nc1ccc(Oc2ccc(Cl)cc2)cc1 | inactive | 
19 | Cc1coc2c1c(C)cc1oc(=O)c(CC(=O)NCC(=O)NCC(=O)O)c(C)c12 | inconclusive [activator, single point] | 
20 | Cc1ccc(C(=O)N2NC(c3ccccc3F)C3C(=O)N(c4cccc(C)c4)C(=O)C32)cc1 (stereo not given) | inconclusive [inhibitor, partial curve, poor fit] | 
21 | Cc1ccc(OC[C@H](O)[C@H](C)NC(C)C)c2c1CCC2 | inconclusive [inhibitor, partial curve] | 
22 | CN(C)C(=O)c1ccc(-c2ccc3ncnc(N4CCOCC4)c3c2)cc1 | inactive | 
23 | Cc1cc(C(C#N)c2ccccc2F)n2ncnc2n1 (stereo not given) | inconclusive [inhibitor, single point] | 
24 | Fc1cccc(C2NN=C(c3ccccc3)S2)c1 (stereo not given) | inactive | 

Row | SMILES | Potency | activity change, negative = inhibition
25 | COc1ccc(-c2oc3cccnc3c2C#CC2(O)CCCCC2)cc1 | inconclusive [activator, partial curve] | 
26 | O=C(CN1CCN(C(=O)c2ccco2)CC1)NCc1ccc(Cl)cc1 | inactive | 
27 | COCCNC(=S)Nc1ccc(S(=O)(=O)Nc2ncccn2)cc1 |  | inconclusive: 35.8% [activator]
28 | CCCCc1nc(NCCNC(=O)c2ccccc2)c(C#N)c2c1CSC(C)(C)C2 | inconclusive [activator, single point] | 
29 | Cn1cc(-c2ccccc2)cc(C#N)c1=O | inconclusive [activator, partial curve] | 
30 | O=C(C1CCC1)N1CCc2cc(S(=O)(=O)Nc3ccc4c(c3)OCCO4)ccc21 | inconclusive [inhibitor, partial curve, poor fit] | 
31 | O=C1NN(C(=O)Nc2ccc(Br)cc2)C(c2ccccc2)C1c1ccccc1 (stereo not given) | inactive | 
32 | Cc1[nH][nH]c(=O)c1N=Nc1ccc(F)cc1 | inconclusive [inhibitor, full curve, poor fit] | 
33 | O=C(COC(=O)/C=C/c1cccs1)Nc1ccc2ccccc2c1 | inconclusive [activator, partial curve, poor fit] | 
34 | Clc1ccc(OCc2cc(-c3ccccc3)no2)cc1Cl | inconclusive [activator, partial curve] | 
35 | COc1cc(/C=C/C(=O)c2ccccc2O)cc(OC)c1OC | inactive | 
36 | Cc1ccc(-c2csc(N3C(=N)SCC3=O)n2)cc1 | inactive | 
37 | CCCn1nc(Oc2nc(SC)nc(N(C)C)n2)ccc1=O | inactive | 
38 | Cc1ccc(C)c(C(=O)CSc2n[nH]c(C(C)C)n2)c1 | inconclusive [inhibitor, full curve, poor fit] | 
39 | COc1ccccc1-n1c(=O)[nH]c2c(C(N)=O)nc(-c3cccnc3)nc21 | inconclusive [activator, partial curve] | 
40 | O=C(COc1cccc2cccnc12)Nc1ccccc1 | inconclusive [activator, partial curve] | 
41 | Cc1cc(SCC(=O)N2CCC(c3noc4ccc(F)cc34)CC2)nc2ccccc12 | inconclusive [activator, partial curve] | 
42 | O=C(NCc1cccnc1)c1ccc2c(c1)N(Cc1ccccc1)CCS2 | inconclusive [activator, partial curve] | 
43 | Cc1ccc(S(=O)(=O)c2c(N)n(-c3ccccc3)c3nc4ccccc4nc23)cc1 | inconclusive [activator, single point] | 
44 | CC(C)(C)/C=N/NC(=O)CNC(=O)c1ccc2c(c1)OCCO2 | inconclusive [inhibitor, single point] | 
45 | O=C(O)Cn1c(=O)c(-c2ccccc2)nc2ccccc21 | inconclusive [activator, single point] | 
46 | Cc1[nH]c2ccccc2c1C(=O)C(C)OC(=O)c1ccccc1NCCO (stereo not given) | inconclusive [activator, partial curve] | 
47 | N#CCCN(C(=O)COc1ccc(Cl)cc1Cl)c1ccccc1 | inconclusive [activator, single point] | 
48 | CCOC(=O)c1ccc(NC(=S)Nc2ccc(C)cc2)cc1 | inactive | 

Row | SMILES | Potency | activity change, negative = inhibition
49 | Cc1ccc(S(=O)(=O)NCCCCCC(=O)Nc2ccccc2)cc1 | inactive | 
50 | COc1ccc2nc(C)cc(N3CCN(c4ccccc4)CC3)c2c1 | inactive | 
51 | COc1ccc(C(=O)Nc2ccc(C)cc2C(=O)c2ccccc2)cc1 | inconclusive [activator, single point] | 
52 | Cc1cccc(NS(=O)(=O)c2ccc(C(=O)NCCCN3CCOCC3)cc2)c1C | inconclusive [inhibitor, single point] | 
53 | COc1cc(/C=N/NC(=O)CCN2CCN(C(c3ccccc3)c3ccccc3)CC2)ccc1O | inconclusive [inhibitor, single point] | 
54 | Cc1ccc(CNc2nc(-c3cccnc3)nc3ccccc23)cc1 | inconclusive [inhibitor, partial curve, poor fit] | 
55 | COc1ccc(C2=NN(c3ccc(C(=O)O)cc3)C(c3ccc(OC)c(OC)c3)C2)cc1 (stereo not given) | inconclusive [activator, single point] | 
56 | CC(C)N1C(=O)S/C(=C/c2ccc(Sc3nc4ccccc4[nH]3)o2)C1=O | inconclusive [activator, partial curve] | 
57 | C=CCn1c(CNS(=O)(=O)c2ccc(F)cc2)n[nH]c1=S | inconclusive [inhibitor, full curve, poor fit] | 
58 | CS(=O)(=O)N1Cc2ccccc2CC1C(=O)OCC(=O)Nc1ccc2ccccc2c1 (stereo not given) | inconclusive [activator, partial curve] | 
59 | N#Cc1nc(-c2cccs2)oc1NCc1ccccc1 | inactive | 
60 | C[C@H](CCC(=O)NCC(=O)O)C1CC[C@H]2C3CC[C@@H]4C[C@H](O)CC[C@]4(C)C3C[C@H](O)[C@]12C (stereo not given in full) | inactive | 
61 | CSCCC(NC(=O)c1cccc(C)c1)C(=O)OCC(=O)Nc1c(C)nn(-c2ccccc2)c1C (stereo not given) | inconclusive [inhibitor, partial curve] | 
62 | CC(C)n1c2ccccc2c2nc3ccccc3nc21 | inactive | 
63 | COc1ccccc1CNC(=O)/C(C#N)=C/c1ccc(OC)c(OC)c1OC | inconclusive [activator, single point] | 
64 | O=c1/c(=C/c2ccccn2)sc2nc3ccccc3n12 | inactive | 
65 | COc1ccc(CNc2ncncc2-c2ccc3c(c2)OCO3)c(OC)c1 | inconclusive [inhibitor, single point] | 
66 | COc1ccc(CCN(CC(=O)NC2CCCC2)C(=O)Cn2nnc(-c3ccc(C)o3)n2)cc1OC | inactive | 
67 | CC(/C=N/NC(=O)CSc1nnc(SCc2ccccc2)s1)=C\c1ccco1 | inactive | 
68 | COc1cc(C)ccc1OCc1cc(C(=O)NCc2ccncc2)no1 | inactive | 
69 | C/C(N)=C(/C#N)C(=O)COC(=O)c1ccccc1C(=O)c1ccc(C)cc1 | inconclusive [inhibitor, partial curve] | 
70 | CCOc1ccc(OCc2ccc(C(=O)N/N=C(\C)c3ccccn3)cc2)cc1 | inconclusive [activator, partial curve] | 
